Data on 103 sequences can be found in article PMC5892938.

Some of the results follow. The exact form of the protein is not confirmed.

The experiment concerns the target GST-SBP-ILF3 (Homo sapiens) (UniProt Q12906). The experiment can be described thus: targeted RNA Bind-n-Seq. Conditions: RBNS binding buffer: 25 mM Tris pH 7.5, 150 mM KCl, 3 mM MgCl2, 0.1% Tween, 0.5 mg/mL BSA, 1 mM DTT; 27 nM protein, 750 pM RNA pool; temperature not stated; high values mean tight binding; sequences stand for … in GGGUAAAAGCGAGGUGAA…CGGGACAAGUAUUAUGGG
Take “UUUUUUUUUUGAGACUGCGACAGUUUCCAG [tttttgagapaired]”: the binding signal (log2 fold change) was 0.529.

For “UUUUUUUUUUGAGACGGUAGCCGUUUCCUG [tttttgagapaired]”, the binding signal (log2 fold change) was determined as 0.613.

With “UUUUUUUUUUGAGACCGAAACGGUUUCCGG [tttttgagapaired]”, the binding signal (log2 fold change) is 0.472.

As for “UUUUUUUUUUGAGAUGGGCUCCAUCUCCAG [tttttgagapaired]”, the binding signal (log2 fold change) came out at 0.383.

Consider “UUUUUUUUUUGAGACUGUUGCAGUCUUCUA [tttttgagapaired]”, for which the binding signal (log2 fold change) stood at 0.366.

Turning to “GUGUGGUGUGUUGGCCUCUAACACAUCGCA [gtspaired]”, the binding signal (log2 fold change) is -0.804.

“UUUUUUUUUUGAGAGGGGUCCCUUCUCCAG [tttttgagapaired]”: the binding signal (log2 fold change) was found to be 0.796.

Turning to “UUUUUUUUUUGAGAUCGGUACGAUCUUCUA [tttttgagapaired]”, the binding signal (log2 fold change) came to 0.595.

Take “UUUUUUUUUUGAGACGGAGACCGUCUCCAG [tttttgagapaired]”: the binding signal (log2 fold change) was 0.495.

Regarding “UUUUUUUUUUGAGAGUGAGACACUCUUCUG [tttttgagapaired]”, the binding signal (log2 fold change) came out at 0.173.

As to “UUUUUUUUUUGAGAACGGACCGUUCUCCUA [tttttgagapaired]”, the binding signal (log2 fold change) is 0.443.

On to “UUUUUUUUUUGAGAGGGUGGCCCUCUCCAG [tttttgagapaired]”, for which the binding signal (log2 fold change) is 0.935.

As for “UUUUUUUUUUGAGACUGCGACAGUCUCCAG [tttttgagapaired]”, the binding signal (log2 fold change) came to 0.559.

On to “GGUGUGUGUGUUGGAGUCUAACACAUACGC [gtspaired]”, for which the binding signal (log2 fold change) is -0.717.

“UUUUUUUUUUGAGACGGAAUCUGUCUCCUG [tttttgagapaired]”: the binding signal (log2 fold change) came to 0.395.

Take “UUUUUUUUUUGAGAGGGGGACCCUCUCCGG [tttttgagapaired]”: the binding signal (log2 fold change) amounted to 0.408.

On to “UUUUUUUUUUGAGAGCGAUGCGCUCUUCUG [tttttgagapaired]”, for which the binding signal (log2 fold change) was 0.253.

On to “UUUUUUUUUUGAGAAGGGGCCCUUCUCCAG [tttttgagapaired]”, for which the binding signal (log2 fold change) is 0.217.

“UUUUUUUUUUGAGACGGGGACCGUCUCCUG [tttttgagapaired]”: the binding signal (log2 fold change) turned out to be 0.566.

Regarding “UUCCUCUCUCCUCCGCGGGAGGGGGGAGGA [ctspaired]”, the binding signal (log2 fold change) was -0.411.

Regarding “UUUUUUUUUUGAGAUGGGACCCAUCUUCUG [tttttgagapaired]”, the binding signal (log2 fold change) turned out to be 0.55.

Turning to “UUUUUUUUUUGAGACGGACUCCGUCUUCUG [tttttgagapaired]”, the binding signal (log2 fold change) was 0.639.

For “UUUUUUUUUUGAGAGGGUGCCCCUCUCCGG [tttttgagapaired]”, the binding signal (log2 fold change) came to 0.579.

“GUGGUGUGUGUUGGUGUCUAACACACAUCG [gtspaired]”: the binding signal (log2 fold change) is -0.808.

As to “UUUUUUUUUUGAGAGGGAAACCCUUUCCAG [tttttgagapaired]”, the binding signal (log2 fold change) is 0.0642.

Regarding “GUGUGUUGUGUUGGUCUCUAACACAACGCA [gtspaired]”, the binding signal (log2 fold change) is -0.138.

Consider “GUUGUGUGUGUUGGCGUCUAACACACGCAG [gtspaired]”, for which the binding signal (log2 fold change) is -0.728.

Take “GUGUGUGGUGUUGGACUCUAACACCAUACA [gtspaired]”: the binding signal (log2 fold change) is -0.519.

Regarding “UUUUUUUUUUGAGAGCGGUGCGCUCUUCUG [tttttgagapaired]”, the binding signal (log2 fold change) is 0.211.

With “GUGUGUUGUGUUGGAGCCUAACACAACGCG [gtspaired]”, the binding signal (log2 fold change) was -0.736.

With “GUGGUGUGUGUUGGAGUCUAACACAUACCA [gtspaired]”, the binding signal (log2 fold change) was -0.404.

For “GUGUGGUGUGUUGGCCUCUAACACACCGCA [gtspaired]”, the binding signal (log2 fold change) was -0.426.

For the sequence “GUUGUGUGUGUUGGUCCCUAACACACACAG [gtspaired]”, the binding signal (log2 fold change) is -0.563.

With “UUUUUUUUUUGAGAGUGAGACACUCUCCGG [tttttgagapaired]”, the binding signal (log2 fold change) came to 0.102.

With “GUGUGUGGUGUUGGUGUCUAACACCGCACG [gtspaired]”, the binding signal (log2 fold change) was -0.584.

For “GUGUGUGGUGUUGGUACCUAACACCGCGCA [gtspaired]”, the binding signal (log2 fold change) was -0.564.

Regarding “GUUGGUGGUGUUGGACUCUAACACCAUCAA [gtspaired]”, the binding signal (log2 fold change) was -0.424.

On to “GGUUGUGGUGUUGGUGUCUAACACCGCGAC [gtspaired]”, for which the binding signal (log2 fold change) was -0.795.

Turning to “UUUUUUUUUUGAGACCGGGUCGGUCUUCUA [tttttgagapaired]”, the binding signal (log2 fold change) was determined as 0.452.

As for “GGUGUGUGUGUUGGUUCCUAACACAUACGC [gtspaired]”, the binding signal (log2 fold change) is -0.489.

Consider “GUGGUGUGUGUUGGCAUCUAACACACAUCA [gtspaired]”, for which the binding signal (log2 fold change) was -0.685.

On to “GGUUGUUGUGUUGGAGUCUAACACAGCAAC [gtspaired]”, for which the binding signal (log2 fold change) is -0.69.

With “GUGGUUGGUGUUGGCCUCUAACACCGACUA [gtspaired]”, the binding signal (log2 fold change) is -0.554.

In the case of “UUUUUUUUUUGAGACCGCAACGGUCUCCGG [tttttgagapaired]”, the binding signal (log2 fold change) is 0.439.

“UUUUUUUUUUGAGACGGAGGCCGUCUCCGG [tttttgagapaired]”: the binding signal (log2 fold change) was found to be 0.839.

Turning to “UUUUUUUUUUGAGAUGGCCACCAUCUCCGG [tttttgagapaired]”, the binding signal (log2 fold change) was 0.722.

Regarding “UUUUUUUUUUGAGAUCGGGGCGAUCUCCUA [tttttgagapaired]”, the binding signal (log2 fold change) amounted to 0.169.

For the sequence “UUUUUUUUUUGAGAUGGAAUCCAUUUCCUA [tttttgagapaired]”, the binding signal (log2 fold change) is -0.302.

On to “UUUUUUUUUUGAGACGGAUACCGUCUCCUG [tttttgagapaired]”, for which the binding signal (log2 fold change) was found to be 0.3.

Turning to “UUUUUUUUUUGAGACGGGGUCCGUCUCCAG [tttttgagapaired]”, the binding signal (log2 fold change) was determined as 0.491.

For “UUUUUUUUUUGAGAGGGUCUCCCUCUCCUG [tttttgagapaired]”, the binding signal (log2 fold change) stood at 0.694.

Consider “UUUUUUUUUUGAGAGGGAAUCCUUCUCCGG [tttttgagapaired]”, for which the binding signal (log2 fold change) is -0.153.

“UUUUUUUUUUGAGAGGGCCCCCCUCUCCUA [tttttgagapaired]”: the binding signal (log2 fold change) was 0.7.

With “GUGUGGUGUGUUGGUCCCUAACACACUAUA [gtspaired]”, the binding signal (log2 fold change) is -0.541.

Consider “GGUGUUGGUGUUGGCUCCUAACACCGACGC [gtspaired]”, for which the binding signal (log2 fold change) was -0.433.

Take “UUUUUUUUUUGAGACUGAAGCAGUCUCCUA [tttttgagapaired]”: the binding signal (log2 fold change) is 0.0902.

For the sequence “UUUUUUUUUUGAGAGCGAAUCGCUCUCCAG [tttttgagapaired]”, the binding signal (log2 fold change) is 0.00878.

As for “UUUUUUUUUUGAGACGGGAUCCGUCUCCAG [tttttgagapaired]”, the binding signal (log2 fold change) was 0.33.

On to “GGUGGUUGUGUUGGCUCCUAACACAGCUAC [gtspaired]”, for which the binding signal (log2 fold change) is -0.301.

For the sequence “GGUGGUUGUGUUGGACCCUAACACAGCCGC [gtspaired]”, the binding signal (log2 fold change) was -0.186.

As to “UUUUUUUUUUGAGACUGCAUCAGUCUCCUA [tttttgagapaired]”, the binding signal (log2 fold change) was 0.213.

For “GUGGUGUGUGUUGGAUCCUAACACACAUCG [gtspaired]”, the binding signal (log2 fold change) was -0.92.

Consider “GGUGGUGGUGUUGGCACCUAACACCGCUAC [gtspaired]”, for which the binding signal (log2 fold change) is -0.266.

Consider “GUUGGUGGUGUUGGAAUCUAACACCGCCGA [gtspaired]”, for which the binding signal (log2 fold change) was -0.414.

On to “GUGUGGUGUGUUGGCCUCUAACACACUACA [gtspaired]”, for which the binding signal (log2 fold change) was -0.338.

With “UUUUUUUUUUGAGACCGGAACGGUCUUCUG [tttttgagapaired]”, the binding signal (log2 fold change) was determined as 0.122.

With “UUCUCUUCUCCUCCGCGGGAGGGGAAGGGA [ctspaired]”, the binding signal (log2 fold change) was -0.297.

For “GUGUGUGGUGUUGGACUCUAACACCAUACG [gtspaired]”, the binding signal (log2 fold change) was -1.08.

“UUUUUUUUUUGAGAGUGGUCCAUUCUCCAG [tttttgagapaired]”: the binding signal (log2 fold change) was 0.574.

For the sequence “UUCUCUUCUCCUCCAUCGGAGGGGGAGGGA [ctspaired]”, the binding signal (log2 fold change) was -0.535.

As to “UUUUUUUUUUGAGAGCGAGACGCUCUUCUA [tttttgagapaired]”, the binding signal (log2 fold change) amounted to 0.171.

“UUUUUUUUUUGAGACCGAUUCGGUCUCCUG [tttttgagapaired]”: the binding signal (log2 fold change) was 0.422.

In the case of “UUUUUUUUUUGAGACGGGGACUGUCUCCAG [tttttgagapaired]”, the binding signal (log2 fold change) came to 0.99.

With “GUUGUGUGUGUUGGCCUCUAACACACACGA [gtspaired]”, the binding signal (log2 fold change) is -0.62.

In the case of “UUUUUUUUUUGAGACUGAAACAGUCUCCUG [tttttgagapaired]”, the binding signal (log2 fold change) was 0.205.

For the sequence “UUUUUUUUUUGAGAACGGUACGUUCUCCGG [tttttgagapaired]”, the binding signal (log2 fold change) is 0.271.

For the sequence “UUUUUUUUUUGAGAACGUAGCGUUCUCCAG [tttttgagapaired]”, the binding signal (log2 fold change) was 0.275.

In the case of “UUCCUCUCUCCUCCGCUGGAGGGGGGAGGA [ctspaired]”, the binding signal (log2 fold change) was -0.491.

With “UUUUUUUUUUGAGACUGAACCAGUCUUCUA [tttttgagapaired]”, the binding signal (log2 fold change) is -0.25.

Take “GUGUGUGGUGUUGGAUCCUAACACCAUACA [gtspaired]”: the binding signal (log2 fold change) was -0.368.

Turning to “UUUUUUUUUUGAGAUCGAGACGAUUUCCGG [tttttgagapaired]”, the binding signal (log2 fold change) was 0.29.

With “UUUUUUUUUUGAGAGGGAGUCCUUCUCCUA [tttttgagapaired]”, the binding signal (log2 fold change) turned out to be 0.399.

“UUUUUUUUUUGAGAUCGGAUCGAUCUUCUA [tttttgagapaired]”: the binding signal (log2 fold change) was -0.0543.

For the sequence “GUGUGGUGUGUUGGUAUCUAACACACUAUA [gtspaired]”, the binding signal (log2 fold change) was -0.586.

Take “UUUUUUUUUUGAGAGCGUGACGUUCUCCAG [tttttgagapaired]”: the binding signal (log2 fold change) stood at 0.294.

For the sequence “GUGUGGUGUGUUGGUACCUAACACAUCACA [gtspaired]”, the binding signal (log2 fold change) is -0.343.

Regarding “GUGUGUGGUGUUGGACCCUAACACCGCACA [gtspaired]”, the binding signal (log2 fold change) is -0.623.

With “UUUUUUUUUUGAGACUGCGGCAGUCUCCAG [tttttgagapaired]”, the binding signal (log2 fold change) is 0.584.

“GUGUUGUGUGUUGGCCUCUAACACACAACG [gtspaired]”: the binding signal (log2 fold change) was -0.806.

“UUUUUUUUUUGAGACGGUAUCCGUCUCCGG [tttttgagapaired]”: the binding signal (log2 fold change) amounted to 0.322.

“UUUUUUUUUUGAGAACGGUCCGUUCUCCUA [tttttgagapaired]”: the binding signal (log2 fold change) is 0.539.

Take “UUUUUUUUUUGAGAGCGAAACGCUCUCCAG [tttttgagapaired]”: the binding signal (log2 fold change) came out at 0.345.

In the case of “GGUUGUGGUGUUGGAGCCUAACACCGCGAC [gtspaired]”, the binding signal (log2 fold change) is -0.584.

“UUUUUUUUUUGAGACGGGACCCGUCUCCAG [tttttgagapaired]”: the binding signal (log2 fold change) is 0.68.

For the sequence “GUGUGUGGUGUUGGAUUCUAACACCGCGCA [gtspaired]”, the binding signal (log2 fold change) was -0.72.

As for “UUUUUUUUUUGAGAGCGACGCGCUCUCCUG [tttttgagapaired]”, the binding signal (log2 fold change) came to 0.35.

On to “UUCUCUCUUCCUCCGGGGGAGGGAGAGGGA [ctspaired]”, for which the binding signal (log2 fold change) was -0.113.

Turning to “UUUUUUUUUUGAGAUGGAGUCCGUCUCCAG [tttttgagapaired]”, the binding signal (log2 fold change) was determined as 0.566.

With “UUUUUUUUUUGAGACGGAUGCCGUUUCCGG [tttttgagapaired]”, the binding signal (log2 fold change) amounted to 0.744.

“GUGGUGUGUGUUGGACCCUAACACAUACUA [gtspaired]”: the binding signal (log2 fold change) is -0.371.

For “GUGUGUUGUGUUGGAGUCUAACACAACGCA [gtspaired]”, the binding signal (log2 fold change) was -0.00619.

As to “UUUUUUUUUUGAGACGGCAGCCGUCUCCGG [tttttgagapaired]”, the binding signal (log2 fold change) stood at 0.76.

In the case of “GUGGUGUGUGUUGGAGUCUAACACAUACUA [gtspaired]”, the binding signal (log2 fold change) was -0.871.
